Source: patent US20180244743A1 (Novo Nordisk, published 2018)

Target: T1, human insulin-like growth factor 1 receptor (human)
T1 construct: whole, on cells; Full-length receptor in purified BHK plasma membranes, not intact cells; also called hIGF1R; IGF-1R
Test: SPA competition with [125I-Tyr31]-human IGF-1, membrane-associated hIGF-1R, 0.1% HSA (Ex 26)
Protocol: The relative binding affinity for either of the membrane-associated human IR-A, IR-B or IGF-1R is determined by competition binding in a SPA setup. IR assays are performed in duplicate in 96-well OptiPlates (Perkin-Elmer Life Sciences). […] Assays are terminated by centrifugation of the plate at 2000 rpm for 2 minutes and bound radioactivity quantified by counting on a TopCount NXT (Perkin-Elmer Life Sciences).
IGF-1R assays are conducted essentially as for the IR binding assays except that membrane-associated IGF-1R and 50 pM [¹²⁵I-Tyr31]-human IGF-1 were employed.

- relative binding affinity (% rel to HI): 10.8 % rel to HI
B1: A21A, B3E, desB27, B29K(N(eps)tetradecanedioyl-4×gGlu), desB30 human insulin (ligand)
chain 1: not shown
chain 2: FVEQHLCGSHLVEALYLVCGERGFFYPK
modifications: B29K (residue 28 of the desB27 chain) acylated on the epsilon nitrogen with tetradecanedioyl-4×gGlu
notes: also called Ex. No. 8

- relative binding affinity (% rel to HI): 5.1 % rel to HI
B2: A21A, B3E, desB27, B29K(N(eps)hexadecanedioyl-4×gGlu), desB30 human insulin (ligand)
chain 1: not shown
chain 2: FVEQHLCGSHLVEALYLVCGERGFFYPK
modifications: B29K (residue 28 of the desB27 chain) acylated on the epsilon nitrogen with hexadecanedioyl-4×gGlu
notes: also called Ex. No. 16

- relative binding affinity (% rel to HI): 22.3 % rel to HI
B3: A21A, B3E, desB27, B29K(N(eps)tetradecanedioyl-gGlu-2×OEG), desB30 human insulin (ligand)
chain 1: not shown
chain 2: FVEQHLCGSHLVEALYLVCGERGFFYPK
modifications: B29K (residue 28 of the desB27 chain) acylated on the epsilon nitrogen with tetradecanedioyl-gGlu-2×OEG
notes: also called Ex. No. 5

- relative binding affinity (% rel to HI): 4.5 % rel to HI
B4: A21A, B3Q, desB27, B29K(N(eps)hexadecanedioyl-4×gGlu), desB30 human insulin (ligand)
chain 1: not shown
chain 2: FVQQHLCGSHLVEALYLVCGERGFFYPK
modifications: B29K (residue 28 of the desB27 chain) acylated on the epsilon nitrogen with hexadecanedioyl-4×gGlu
notes: also called Ex. No. 23

- relative binding affinity (% rel to HI): 26.3 % rel to HI
B5: A21A, B3Q, desB27, B29K(N(eps)tetradecanedioyl-gGlu-2×OEG), desB30 human insulin (ligand)
chain 1: not shown
chain 2: FVQQHLCGSHLVEALYLVCGERGFFYPK
modifications: B29K (residue 28 of the desB27 chain) acylated on the epsilon nitrogen with tetradecanedioyl-gGlu-2×OEG
notes: also called Ex. No. 17

- relative binding affinity (% rel to HI): 17.6 % rel to HI
B6: A8H, B3E, desB27, B29K(N(eps)tetradecanedioyl-gGlu-2×OEG), desB30 human insulin (ligand)
chain 1: not shown
chain 2: FVEQHLCGSHLVEALYLVCGERGFFYPK
modifications: B29K (residue 28 of the desB27 chain) acylated on the epsilon nitrogen with tetradecanedioyl-gGlu-2×OEG
notes: Two-chain, disulfide-linked insulin derivative; also called Ex. No. 1

- relative binding affinity (% rel to HI): 10.4 % rel to HI
B7: A8R, B3E, desB27, B29K(N(eps)tetradecanedioyl-gGlu-2×OEG), desB30 human insulin (ligand)
chain 1: not shown
chain 2: FVEQHLCGSHLVEALYLVCGERGFFYPK
modifications: B29K (residue 28 of the desB27 chain) acylated on the epsilon nitrogen with tetradecanedioyl-gGlu-2×OEG
notes: also called Ex. No. 10

- relative binding affinity (% rel to HI): 11.1 % rel to HI
B8: A8H, A21G, B3E, desB27, B29K(N(eps)tetradecanedioyl-gGlu-2×OEG), desB30 human insulin (ligand)
chain 1: not shown
chain 2: FVEQHLCGSHLVEALYLVCGERGFFYPK
modifications: B29K (residue 28 of the desB27 chain) acylated on the epsilon nitrogen with tetradecanedioyl-gGlu-2×OEG
notes: also called Ex. No. 3

- relative binding affinity (% rel to HI): 13 % rel to HI
B9: A21A, B3Q, desB27, B29K(N(eps)tetradecanedioyl-4×gGlu), desB30 human insulin (ligand)
chain 1: not shown
chain 2: FVQQHLCGSHLVEALYLVCGERGFFYPK
modifications: B29K (residue 28 of the desB27 chain) acylated on the epsilon nitrogen with tetradecanedioyl-4×gGlu
notes: also called Ex. No. 9

- relative binding affinity (% rel to HI): 6.6 % rel to HI
B10: A21G, B3E, desB27, B29K(N(eps)tetradecanedioyl-gGlu-2×OEG), desB30 human insulin (ligand)
chain 1: not shown
chain 2: FVEQHLCGSHLVEALYLVCGERGFFYPK
modifications: B29K (residue 28 of the desB27 chain) acylated on the epsilon nitrogen with tetradecanedioyl-gGlu-2×OEG
notes: also called Ex. No. 6

- relative binding affinity (% rel to HI): 11.5 % rel to HI
B11: A21A, B3Q, desB27, B29K(N(eps)hexadecanedioyl-gGlu-2×OEG), desB30 human insulin (ligand)
chain 1: not shown
chain 2: FVQQHLCGSHLVEALYLVCGERGFFYPK
modifications: B29K (residue 28 of the desB27 chain) acylated on the epsilon nitrogen with hexadecanedioyl-gGlu-2×OEG
notes: also called Ex. No. 24

Each block holds one binder with its values, some of them ahead of it.
